Experimental data from the supplement of paper PMC11417369.
Some of the results follow.

system: PfSIP2 AP2 domain 1 (GST-tagged); assay: gcPBM binding intensity (ln(normalized median fluorescence intensity)); higher = stronger DNA binding
In short: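 An Agilent 4 × 180k array of primer-extended double-stranded 36-bp intergenic genomic probes, with negative controls, was incubated for 1 h with GST-tagged P. falciparum DNA-binding domains expressed in E. coli. Alexa488 anti-GST antibody detected bound protein, scanned at 488 nm. Binding intensity is the highest Masliner-normalised natural-log median intensity across replicate spots of either probe orientation.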

Sequence	gcPBM binding intensity (ln)
ATTCTAATCATATACACACCCATATATATATATATA [CACACA_site1774]	9.34
TAATTTCTTATGTGCTATCTTATATAGAATTAATTT [CACACA_negctrl_site1726]	6.82
TATAAAAAATAAAATACACACACATATATATATATA [CACACA_site8365]	9.05
AGCAGTCAGCAGGACAGTACACAGTAGCCAGGAAAT [XGTACX_site4877]	6.82
AAAAAAAAAATTTAGGTGCATACAAATAAATTATAT [GTGCAC_site9521]	9.85
TTATTCTAAAAAGGGTGTACACAAACGAATGGAAAA [XGTACX_site5662]	7.86
ATGGCTAAAAGTTGCACACACACAAAAAAAAAAAAA [CACACA_site3289]	7.88
TATATATTAATATGCACACACAAGAAGTAATTATAA [CACACA_site3193]	8.06
ATTATATAACAAAATAGTACATATATTTATTACATC [XGTACX_site336]	6.99
GGCATACACGGACACACACACACACCGACATATATA [CACACA_site4493]	7.61
TTTTTTTAACGGTGTGCACACAATATACAGAAAAAA [CACACA_site1415]	9.16
ATTATATATATTTATGCACACAAAATATATTATATA [CACACA_site9244]	7.56
TATATACATTTATATACACACCTATATTTATTTATA [CACACA_site7014]	6.99
CAACAATTTCGTCATACACACATTCAGAATCTATAT [CACACA_site7171]	7.11
TATATTGAAAATAAAACATGCAATCACTCATACATA [TGCATGCA_site248]	6.76
ATGTACCTATTTCATACACACACACCCACAAACAAA [CACACA_site8232]	7.53
TATACATTTATGTACACACACATATAGGTATATTTA [CACACA_site7408]	7.17
AAAATATAATATATTACACACATATATTTTATAAGT [CACACA_site668]	6.79
TATGTTGGTTCTTTTAGTACATAATTACTAAATGTA [XGTACX_site8616]	7.09
AAAACATACATATATACACACATATATATATATATA [CACACA_site1852]	9.37
CAAACTACAAAATTTCGTACGCATATATTTCAAGTA [XGTACX_site5154]	6.9
TTTAAACGTTATATAGTGCATGTCATATTTTATTAT	9.11
TACGTAATAATATGCACACAAATAAACTTTATAAAT [CACACA_site3501]	8.22

Sequence	gcPBM binding intensity (ln)
CAAAAAAGTAAAACGTGTACATATATACATAAAAAT [XGTACX_site5639]	7.18
CTTTTTTATATCTCTACACACATTTATAACAATTTG [CACACA_site1398]	7.35
AAAAAATTATACCTTTGTACATAAATAAAATATTAT [XGTACX_site418]	6.86
ATAACATAAGGAAATACACACATATATAAGTATATA [CACACA_site778]	6.99
ACCCATTGCTCACGTGCACACATAGAAAAATAATTC [CACACA_site4389]	10.1
TATGTATATATTTACGCATGCTACTCTATTTTGAGA [TGCATGCA_site990]	6.89
AGGTTTCATTTAGCATGTACATATTATAAAAATTGT [XGTACX_site8448]	7.03
TCTGTTAATATTTATACACACATATATATATATATA [CACACA_site1139]	9.41
AAGATTACTTATATATGTACACATAATACAAATGTC [XGTACX_site520]	7.03
TTTTTCATAAAAAAATAAAAAAAATTAACATAGAAA [XGTACX_negctrl_site11]	6.7
ATAATATATACTATATGTACATATCTTTTCCTCTTT [XGTACX_site5553]	7.1
TTTTAGAGTGGTATATATTAATTTTTAATAAAAAAA [CACACA_negctrl_site1652]	6.82
AATAAAAGAAGACAGAGTACACAGGTTGTATTTTCC [XGTACX_site7208]	6.82
TGTGCATAAATTTATGCACACATAAAAAAAAAAAAA [CACACA_site8954]	9.95
ATAGTATCTGGTAGCTGTACGAGTCGTAGAGTGTAG [XGTACX_site2030]	7.32
TGGGAAGGGTGGGAAACTTTATCAAAAACTTATTAC [GTGCAC_negctrl_site16]	7.04
TATGTATTTTTTAAGTGTACCTATATATATATATAT [XGTACX_site7934]	9.28
AGAAAGGTGGTATTAAAAGAATAACCTATGAATAAA [GTGCAC_negctrl_site325]	6.79
TATAATAATAATTATTGTACGATTAGGTTAATTCAT [XGTACX_site1984]	7.13
AAATAATATTTTTTTTTTTTTTTTTTTTTATGTTAT [CACACA_negctrl_site809]	6.81
ATAGTCTTAATGACTACACACCTAACTATGCATGCA [CACACA_site5084]	6.83
ATACAGTTGCATATGGTGCACGAATAATACACCTAT	11.3
